Data as given in the supplement of paper PMC4967469.
Lines with a small IC50 respond at low doses; fits outside the tested doses are given as limits. AUC is the area under the same curve over the 256-fold range up to the top dose, as a fraction; the more sensitive the line, the further below 1. For some of these results: Any top dose called inferred comes from the curve model; the source does not state it. For some of these results: Drugs with an entry number were screened twice under separate entries, and the two screens often disagree.

How the values were obtained:
Assay in all cases: Viability of human cancer cell lines after 72 h of drug (GDSC screen)
Thapsigargin = compound: C/C=C(/C)C(=O)O[C@H]1C(C)=C2[C@H]([C@@H]1OC(=O)CCCCCCC)[C@@](C)(OC(C)=O)C[C@H](OC(=O)CCC)[C@@]1(O)[C@H]2OC(=O)[C@@]1(C)O [Thapsigargin]; conditions: top dose 0.512 µM; top dose inferred
Experimental: (§1)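 Human cancer cell lines in 384-well plates, medium with 10% serum, drug for 72 h over a 256-fold dose range (nine 2-fold or five 4-fold steps up to the top dose). Adherent lines were fixed and stained with the nucleic acid dye Syto60, suspension lines read with resazurin; signal relative to control wells, capped at 0 and 100%. One two-parameter sigmoid per drug and line, fitted in a mixed model over all curves with the slope shared within a line.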

Zibotentan = compound: COc1nc(C)cnc1NS(=O)(=O)c1cccnc1-c1ccc(-c2nnco2)cc1 [Zibotentan]; conditions: top dose 20 µM; top dose inferred
Experimental: as §1

CP466722 = compound: COc1cc2ncnc(-n3nc(-c4ccccn4)nc3N)c2cc1OC [CP466722]; conditions: top dose 16 µM; top dose inferred
Experimental: as §1

CMK = compound: Cc1ccc(-c2c(C(=O)CCl)n(CCCO)c3ncnc(N)c23)cc1 [CMK]; conditions: top dose 4 µM; top dose inferred
Experimental: as §1

CHIR-99021 = compound: Cc1cnc(-c2cnc(NCCNc3ccc(C#N)cn3)nc2-c2ccc(Cl)cc2Cl)[nH]1 [CHIR-99021]
Experimental: as §1

GSK269962A = compound: CCn1c(-c2nonc2N)nc2cnc(Oc3cccc(NC(=O)c4ccc(OCCN5CCOCC5)cc4)c3)cc21 [GSK269962A]; conditions: top dose inferred
Experimental: as §1

QL-X-138 = compound: C=CC(=O)Nc1cc(-n2c(=O)ccc3cnc4ccc(-c5cn[nH]c5)cc4c32)ccc1C [QL-X-138]; conditions: top dose 10.24 µM; top dose inferred
Experimental: as §1

ABT-869 = compound: Cc1ccc(F)c(NC(=O)Nc2ccc(-c3cccc4[nH]nc(N)c34)cc2)c1 [ABT-869]; conditions: top dose 1.024 µM; top dose inferred
Experimental: as §1

MPS-1-IN-1 = compound: COc1cc(N2CCC(O)CC2)ccc1Nc1cc(Nc2ccccc2S(=O)(=O)C(C)C)c2cc[nH]c2n1 [MPS-1-IN-1]; conditions: top dose 20 µM; top dose inferred
Experimental: as §1

KU-55933 = compound: O=c1cc(-c2cccc3c2Sc2ccccc2S3)oc(N2CCOCC2)c1 [KU-55933]; conditions: top dose 10 µM
Experimental: as §1

Cytarabine = compound: Nc1ccn([C@@H]2O[C@H](CO)[C@@H](O)[C@@H]2O)c(=O)n1 [Cytarabine]; conditions: top dose 2 µM
Experimental: as §1

ABT-888 = compound: C[C@]1(c2nc3c(C(N)=O)cccc3[nH]2)CCCN1 [ABT-888]; conditions: top dose 5 µM; top dose inferred
Experimental: as §1

(5Z)-7-Oxozeaenol = compound: COc1cc(O)c2c(c1)/C=C/C[C@H](O)[C@H](O)C(=O)/C=C\C[C@H](C)OC2=O [(5Z)-7-Oxozeaenol]; conditions: top dose 10 µM; top dose inferred
Experimental: as §1

[1] = top dose 2.56 µM, screen: GDSC drug entry 154
[2] = top dose 10 µM, screen: GDSC drug entry 1241, top dose inferred
[3] = top dose 2.5 µM, screen: GDSC drug entry 127
[4] = top dose 5 µM, screen: GDSC drug entry 1192

Cell Line | AUC (Thapsigargin) | IC50 (Thapsigargin) [nM] | AUC (Zibotentan) | IC50 (Zibotentan) [nM] | AUC (CP466722) | IC50 (CP466722) [nM] | AUC (CMK) | IC50 (CMK) [nM] | AUC (CHIR-99021; [1]) | IC50 (CHIR-99021; [1]) [nM] | AUC (CHIR-99021; [2]) | IC50 (CHIR-99021; [2]) [nM] | AUC (GSK269962A; [3]) | IC50 (GSK269962A; [3]) [nM] | AUC (GSK269962A; [4]) | IC50 (GSK269962A; [4]) [nM] | AUC (QL-X-138) | IC50 (QL-X-138) [nM] | AUC (ABT-869) | IC50 (ABT-869) [nM] | AUC (MPS-1-IN-1) | IC50 (MPS-1-IN-1) [nM] | AUC (KU-55933) | IC50 (KU-55933) [nM] | AUC (Cytarabine) | IC50 (Cytarabine) [nM] | AUC (ABT-888) | IC50 (ABT-888) [nM] | AUC ((5Z)-7-Oxozeaenol) | IC50 ((5Z)-7-Oxozeaenol) [nM]
P32-ISH (Burkitt lymphoma, suspension) | 0.277 | 9.04 | 0.995 | > 20000 | 0.669 | 2590 | 0.789 | 1310 | 0.982 | > 2560 | 0.86 | 5220 | 0.969 | > 2500 | 0.895 | 3430 | 0.519 | 712 | 0.961 | > 1020 | 0.866 | 10900 | 0.94 | > 10000 | 0.397 | 70.2 | 0.995 | > 5000 | 0.718 | 2150
PF-382 (T-cell lymphoblastic leukaemia, suspension) | 0.48 | 28.5 | 0.983 | > 20000 | 0.604 | 1850 | 0.742 | 1100 | 0.99 | > 2560 | 0.99 | > 10000 | 0.9 | > 2500 | 0.99 | > 5000 | 0.552 | 872 | 0.991 | > 1020 | 0.85 | 12300 | 0.979 | > 10000 | 0.662 | 330 | 0.981 | > 5000 | 0.905 | > 10000
QIMR-WIL (acute myeloid leukaemia, suspension) | 0.71 | 123 | 0.985 | > 20000 | 0.589 | 1740 | 0.912 | > 4000 | 0.982 | > 2560 | 0.977 | > 10000 | 0.678 | 482 | 0.872 | 4500 | 0.433 | 422 | 0.984 | > 1020 | 0.869 | 17400 | 0.903 | > 10000 | 0.925 | > 2000 | 0.982 | > 5000 | 0.752 | 3220
REH (B-cell leukaemia, suspension) | 0.312 | 9.76 | 0.974 | > 20000 | 0.634 | 2310 | 0.91 | > 4000 | 0.896 | > 2560 | 0.849 | 7040 | 0.936 | > 2500 | 0.846 | 3420 | 0.336 | 228 | 0.969 | > 1020 | 0.766 | 7080 | 0.969 | > 10000 | 0.443 | 88 | 0.987 | > 5000 | 0.622 | 1340
RF-48 (stomach, adherent) | 0.695 | 121 | 0.971 | > 20000 | 0.722 | 4640 | 0.768 | 1680 | 0.985 | > 2560 | 0.984 | > 10000 | 0.939 | > 2500 | 0.9 | > 5000 | 0.451 | 464 | 0.985 | > 1020 | 0.863 | > 20000 | 0.982 | > 10000 | 0.964 | > 2000 | 0.985 | > 5000 | 0.923 | > 10000
RKO (large intestine, adherent) | 0.219 | 5.2 | 0.988 | > 20000 | 0.797 | 6940 | 0.894 | > 4000 | 0.98 | > 2560 |  |  | 0.917 | > 2500 | 0.984 | > 5000 | 0.647 | 1580 | 0.988 | > 1020 | 0.838 | 12200 | 0.974 | > 10000 | 0.817 | 1010 | 0.984 | > 5000 | 0.417 | 378
RL (B-cell lymphoma, suspension) | 0.94 | > 512 | 0.989 | > 20000 | 0.779 | 5960 | 0.984 | > 4000 | 0.99 | > 2560 | 0.944 | > 10000 | 0.923 | > 2500 | 0.887 | 4780 | 0.524 | 739 | 0.99 | > 1020 | 0.802 | 8870 | 0.962 | > 10000 | 0.91 | > 2000 | 0.99 | > 5000 | 0.921 | > 10000
ROS-50 (B-cell leukaemia, suspension) | 0.518 | 36.3 | 0.979 | > 20000 | 0.822 | 13000 | 0.879 | > 4000 | 0.984 | > 2560 | 0.982 | > 10000 | 0.984 | > 2500 | 0.975 | > 5000 | 0.829 | 8970 | 0.983 | > 1020 | 0.822 | 16100 | 0.975 | > 10000 | 0.963 | > 2000 | 0.972 | > 5000 | 0.893 | > 10000
RPMI-6666 (Hodgkin lymphoma, suspension) | 0.559 | 47.8 | 0.977 | > 20000 | 0.615 | 2210 | 0.776 | 1940 | 0.928 | > 2560 | 0.979 | > 10000 | 0.886 | > 2500 | 0.947 | > 5000 | 0.367 | 255 | 0.975 | > 1020 | 0.801 | 12200 | 0.956 | > 10000 | 0.924 | > 2000 | 0.976 | > 5000 | 0.686 | 2320
